Test results reported in paper PMC3542062, “A phenyl-thiadiazolylidene-amine derivative ejects zinc from retroviral nucleocapsid zinc fingers and inactivates HIV virions” (Retrovirology, 2012).

Test system: NNRTIR K103N:Y181C HIV-1 strain
Test: GFP-assay in Jurkat A72 (LTR-GFP) cells
Type: cell-based
Details: Human immunodeficiency virus 1, Jurkat, 72 h, read-out: EC50 NNRTIR K103N:Y181C

Cn1sc(=N)nc1-c1ccccc1 [WDO-217, 2-methyl-3-phenyl-2H-[1,2,4]thiadiazol-5-ylideneamine]
EC50: 1300 ± 400 nM
